# The whole screen tested about 410,000 compounds, of which about 1,200 (0.29%) were called active. Inconclusive results, whose numbers are uncertain, are shown with a selection of clear calls. Calls follow the shape of the dose curve; as a rule, active = well fitted activation curve with a large enough effect; inconclusive = small, poorly fitted or top-dose-only effect; inactive = flat fitted curve, though single readings scatter. Where the call is inconclusive, the potency comes from a doubtful curve fit.
# Experiment: qHTS of Nrf2 Activators; also: nearly all actives have a fitted effect of over 65% in size; as to activation: % of control where 0% means no effect
# Details: AREc32 ARE-luciferase reporter (MCF7-derived line), luminescence, 24 h; activation: at 46.1 µM (top of the series)
# Procedure, shortened: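 Steps: seed AREc32_Fluc cells (1000/well, 5% FBS OPTI-MEM); incubate overnight at 37 deg C; add 23 nL compound; incubate 24 hr; add Steady-Glo; hold 30 min RT; read luminescence.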
# Potency is read from the fitted curve at half-maximal effect; tags tell the direction and shape of the fitted curve.
Compound,Potency,activation
Cc1csc2c(=O)sc(NC(=O)c3cccs3)nc12,active: 3.55 µM,
CCCOc1cccc(C(=O)Nc2ccc(-c3nc4ccccc4o3)cc2)c1,,inactive: -1.17%
COc1ccc(Nc2c([N+](=O)[O-])ccc3c2=NC2(CCCCC2)N=3)cc1,"inconclusive: 20 µM [activator, single point]",
CCN(CC)CCCNC(=O)Cn1c(-c2cccs2)cc2cc(Cl)ccc21,"inconclusive: 12.6 µM [activator, single point]",
COC(=O)c1ccc(Sc2nnnn2-c2ccccc2)c([N+](=O)[O-])c1,"inconclusive: 15.8 µM [activator, single point]",
CCCOc1ccc(C(=O)C(CN2CCOCC2)c2ccccc2)cc1 (stereo not given),"inconclusive: 3.16 µM [activator, single point]",
COC(=O)c1ccc(CSc2nnc3sc4ccccc4n23)o1,"inconclusive: 17.8 µM [activator, partial curve, poor fit]",
O=C(O)c1ccc2oc(=O)c(S(=O)(=O)c3ccccc3)cc2c1,"inconclusive: 15.8 µM [activator, single point]",
Cc1ccc([N+](=O)[O-])cc1N/C=C1\CCc2ccccc2C1=O,"inconclusive: 12.6 µM [activator, single point]",
O=C(c1cccs1)c1coc2ccc(O)cc12,"inconclusive: 15.8 µM [activator, partial curve, poor fit]",
CCOc1ccc(N=Nc2ccc(O)c3ncccc23)cc1,"inconclusive: 7.08 µM [activator, partial curve]",
Cc1cc2c(cc1C)N(C(=O)CCl)CC(=O)N2,"inconclusive: 7.94 µM [activator, partial curve]",
Cc1ccc2oc(=O)c(/C=C(\O)c3cccs3)nc2c1,active: 15.8 µM,
COC(=O)c1sc(Nc2ccccc2)nc1C,"inconclusive: 15.8 µM [activator, partial curve, poor fit]",
Cc1noc(C)c1C(=O)N1CCN(c2ccc(OCc3ccccc3)cc2)CC1,,inactive: -0.252%
Cc1ccc(Nc2c([N+](=O)[O-])c(=O)oc3ccccc23)cc1C,"inconclusive: 20 µM [activator, partial curve, poor fit]",
CC(C)(C)C1=CC(=O)C(=O)C(C(C)(C)C)=C1,"inconclusive: 12.6 µM [activator, single point]",
NCC(=O)c1cccc2ccc[n+]([O-])c12,"inconclusive: 6.31 µM [activator, single point]",
CC1=C(C)/C(=N\OS(=O)(=O)c2ccc(C)cc2)C=CC1=O,"inconclusive: 3.98 µM [activator, single point]",
Clc1cccc(Cc2c(-c3ccco3)nc3c4ccccc4ccn23)c1,"inconclusive: 7.08 µM [activator, partial curve, poor fit]",
CCOCCN1CCN(c2c(CC)c(C)nc3cc(-c4cc(OC)cc(OC)c4)nn23)CC1,,inactive: 6.86%
Cc1onc(-c2ccccc2)c1C(=O)Nc1sc2c(c1C#N)CCC(C)C2 (stereo not given),,inactive: 0.0921%
Cc1cccc(Oc2c([N+](=O)[O-])c(=O)n(C)c3ccccc23)c1,"inconclusive: 20 µM [activator, single point]",
CCn1nc(NC(=O)c2ccco2)c2cc3ccccc3nc21,,inactive: 14.5%

Compound,Potency,activation
O=c1[nH]c(-c2ccccn2)nc2sc(-c3ccccc3)cc12,"inconclusive: 15.8 µM [activator, partial curve, poor fit]",
CC(=O)Nc1sc(N/N=C\c2ccco2)nc1-c1cccs1,"inconclusive: 17.8 µM [activator, single point]",
COC(=O)CNC(c1ccccc1)c1cc(Br)ccc1NC(=O)CCN1CCOCC1 (stereo not given),,inactive: 3.9%
COc1ccc(CCNC(=O)NCc2noc3ccc(C)cc23)c(OC)c1,,inactive: 0.0375%
Cc1nc2ccccn2c1C(=O)/C=C/c1ccc(F)cc1,"inconclusive: 3.16 µM [activator, full curve, poor fit]",
CC1CCN(CC2C(=O)O[C@@H]3C[C@@]4(C)CCC[C@H](C)C4=C[C@H]23)CC(C)(C)C1 (stereo not given in full),active: 8.91 µM,
CCOc1ccc(NC(=O)CCNC(=O)Cn2ccc3ccccc3c2=O)cc1,,inactive: 0.0531%
Cc1csc(NC(=O)c2ccc(Cl)nc2)n1,"inconclusive: 20 µM [activator, single point]",
CC(=O)c1ccccc1-c1csc2ncnc(Sc3nnnn3C)c12,"inconclusive: 2.82 µM [activator, full curve, poor fit]",
CCOc1cc(/C=C/C(=O)OCC(=O)NCc2ccco2)cc(Cl)c1OC,"inconclusive: 31.6 µM [activator, single point]",
CCSc1nnc(-c2ccc(Cl)cc2Cl)o1,"inconclusive: 22.4 µM [activator, single point]",
CCOC(=O)Cn1cnc2c(sc3nc(C)cc(C)c32)c1=O,,inactive: 2.93%
Cc1cc(-c2cccc([N+](=O)[O-])c2)nc2ccccc12,"inconclusive: 14.1 µM [activator, partial curve, poor fit]",
Cc1cc(O)c(NC(=O)c2cccc([N+](=O)[O-])c2)cc1C,"inconclusive: 0.794 µM [activator, full curve, poor fit]",
Cc1ccc(Sc2nnc(Cc3ccccc3)c3ccccc23)cc1,"inconclusive: 25.1 µM [activator, single point]",
O=C(COc1ccccc1[N+](=O)[O-])NCC1(N2CCOCC2)CCCCC1,"inconclusive: 12.6 µM [activator, single point]",
Cc1c([N+](=O)[O-])c([N+](=O)[O-])nn1CC(=O)N1CCCCC1,"inconclusive: 12.6 µM [activator, partial curve]",
CCCCCn1c(=O)c(C(=O)OCC)c(Cl)c2ccccc21,"inconclusive: 25.1 µM [activator, single point]",
CCCCC/C=C/C1=CC(=O)C[C@H](c2ccc(OC)c(OC)c2)C1,"inconclusive: 28.2 µM [activator, single point]",
O=C(O)/C=C/c1ccc2ccccc2n1,"inconclusive: 22.4 µM [activator, single point]",
Cc1ccc2oc(=O)c3cc(C(=O)NCc4ccco4)sc3c2c1,"inconclusive: 11.2 µM [activator, single point]",
CSc1nc2c(c(-c3ccc(O)cc3)c1C#N)CCC2,,inactive: -0.421%
C=C1CSc2nc(=O)c3c(C)c(C)sc3n21,,inactive: -0.404%
CCOC(=O)C1=C(COC(=O)/C=C/c2ccccc2Cl)NC(=O)NC1C (stereo not given),"inconclusive: 15.8 µM [activator, partial curve, poor fit]",

Compound,Potency,activation
CCOC(=O)CSC1=NC(=O)/C(=C/c2ccc(Br)cc2)S1,,inactive: 25.5%
CN(O)C(=S)c1ccccc1,"inconclusive: 3.16 µM [activator, single point]",
COc1ccc(-c2cc3ncccc3cn2)cc1,"inconclusive: 2.82 µM [activator, full curve, poor fit]",
COc1ccc(C(=O)CC(SCC(NC(C)=O)C(=O)O)c2ccc(Cl)cc2)cc1OC (stereo not given),"inconclusive: 31.6 µM [activator, single point]",
COc1cc(NC(=O)c2nc3ccccc3n(C)c2=O)cc(OC)c1OC,"inconclusive: 14.1 µM [activator, single point]",
OC1C=CSc2nc3ccccc3n21 (stereo not given),"inconclusive: 17.8 µM [activator, single point]",
C/C(=N\Nc1nc2ccccc2s1)c1cccs1,"inconclusive: 2.82 µM [activator, partial curve, poor fit]",
N#Cc1c(-c2ccco2)cc(-c2ccccc2)[nH]c1=O,active: 2.51 µM,
Cc1ccc(-n2nc3c(=O)n(CC(=O)NCc4ccccc4)nc(C)c3c2C)cc1,,inactive: -1.01%
CSc1nc2sc3c(c2c(=O)n1C)CCC(C)C3 (stereo not given),"inconclusive: 5.62 µM [activator, full curve]",
CCc1nnc(NS(=O)(=O)c2ccc(NC(=O)c3ccc([N+](=O)[O-])s3)cc2)s1,active: 14.1 µM,
Cc1ccc(C(=O)OCc2nc3ccsc3c(=O)[nH]2)o1,"inconclusive: 12.6 µM [activator, partial curve]",
O=C(N/N=C/c1ccccc1[N+](=O)[O-])C(=O)N1CCCC1,"inconclusive: 20 µM [activator, single point]",
CCOC(=O)c1c(NC(=O)c2ccco2)sc2c1CCCC2,"inconclusive: 11.2 µM [activator, partial curve, poor fit]",
COc1cccc(-c2noc(CCCC(=O)NCc3ccco3)n2)c1,"inconclusive: 15.8 µM [activator, single point]",
COc1ccc(OC)c(CNC(=O)c2ccc(NC(=O)c3nsc4ccccc34)cc2)c1,,inactive: 1.12%
COc1ccc(/C=C/C(=O)c2ccc3c4c(cccc24)CC3)cc1OC,,inactive: 0.495% [at 9.22 µM]
O=c1cc(O)nc(SCc2ccccc2)n1-c1ccc(Cl)cc1,,inactive: 1.64%
O=C(O)/C(=C\c1ccccc1OC(F)F)Sc1nnc(-c2ccc(F)cc2)o1,"inconclusive: 35.5 µM [activator, partial curve, poor fit]",
COc1ccccc1-c1nnc(NC(=O)CCS(=O)(=O)c2ccccc2)o1,"inconclusive: 17.8 µM [activator, partial curve, poor fit]",
O=C(CCCN1C(=O)/C(=C/c2ccccc2OC(F)F)SC1=S)Nc1cccnc1,"inconclusive: 3.55 µM [activator, single point]",
Cn1c(SCc2ccccc2)nc(N)c(N=O)c1=O,"inconclusive: 15.8 µM [activator, single point]",

# — PubChem BioAssay AID624171 (National Center for Advancing Translational Sciences (NCATS), 2012)
